The source gives no read counts; variants with many changes may rest on few reads.
B1: OR4K15 (parent)
chain: GUUAACGGUCAUAGGCCAUGGAAACUAGGAGCACCAUUUCGCUGCCAGUGAAGAAAUGAACAAAGAAAAUCUGGGCCAGGCAGGCAUCAAAAGAAAUAGUCUUGCGCUCAACCAGAAAGUCUGUAAUCAUUUUAAGGGUA

Variants of: B1
Test: self-cleavage, relative activity (ratio to wild type); higher = more cleavage; in vitro, sequencing; the parent is a self-cleaving ribozyme

Row | Variant | self-cleavage
1 | CUUAACGGUCAUAGGCCAUGGAAACUAGGAGCACCAUUUCGCUGCCAGUGAGGAAAUGAACAAAGAAAAUCUGGGCCAGGCAGGCAUCGAAAGAAAUAGUCUUGCGCUCAACCAGAGAGUCUGUAAUCAUUAUAAGGGUA [G1C A52G A89G A117G U132A] | 0.51
2 | AUUAACGGCCAUAGGCCAUGGAAACUAGGAGCACCAUUUCGCUGCCAGUGAAGAAGUGAACAAAGAAAAUCUGGGCCAGGCAGGCAUCAAAAGAAAUGGUCUUGCGCUCAACCAGGAAGUCCGUAAUCAUUUUAAGGGCA [G1A U9C A56G A98G A116G U122C U139C] | 0.15
3 | AAUAACGGUCAUAGGCCAUGGAAACUAGGAGCACCAUUUCGCUGCUAGUGAAGAAAUGAACAGAGAAAAUCUGGGCCAGGCAGGCAUCAAAAGAAAUAGUCUUGCGCUCAACCAGAAAGUCUGUAAUCAUUUUAAGGGUC [G1A U2A C46U A63G A140C] | 0.76
4 | AUUAACGGUCAUAGGCCAUGGAAACUAGGAGCUCCAUUUCGCCGCCAGUGAAGAAAUGAACAAAGAAAAUCUGGGCCAGGCAGGCAUCAAAAGAAAUAGUCUUGCGCUCAACCAGAAAGUCUGUAAUCAUUCUAAGGGUA [G1A A33U U43C U132C] | 1.79
5 | AUUAGCGGCCAUAGGCCAUGGAAACUAGGAGCACCAUUUCGCUGCCAGUGAAGAAAUGAACAAAGAAAAUCUGGGCCAGGCAGGCAUCAAAAGAAAUAGUCUUGCGCUCAGCCAGAAAGUCUGUAAUCAUUUUAAGGGUA [G1A A5G U9C A111G] | 0.08
6 | GAUAGCGGUCAUAGGCCAUGGAAACUAGGAGCACCAUUUCGCUGCCAGUGAAGAAAUGAACAAAGAAAAUCUGGGCCAGGCAGGCAUCAAAAGAAAUAGUCUUGCGCUCAACCAGAAAGUCUGUAAACAUUUUAUGGGUA [U2A A5G U127A A135U] | 0.96
7 | AUUAGCGGUCAUAGGCCAUGGAAACUAGGAGCACCAUUUCGCUGCCAGUGAAGAAAUGAACAAAGAAAGUCUGGGCCAGGCAGGCAUCAAAAGAAAUAGUCUUGCGCUCAACCAGAGAGUCUGCAAUCAUUUUAAGGGUA [G1A A5G A69G A117G U124C] | 0.48
8 | CUUAACGGUCAUAGGCCAUGGGAACUAGGAGCACCAUUUCGCUGCCAGUGAAGAAAUGAACAAAGAAAAUCUGGGCCAGGCAGGCAUCAAAAGAAAUAGUCUUGCGCUCAGCCAGAAAGUCUGUAAUCAUUUUAAGGGUA [G1C A22G A111G] | 0
9 | GAUGACGGUCAUAGGCCAUGGAAACUAGGUGCACCAUUUCGCUGCCAGUGAAGAAAUGAACAAAGAAAAUCUGGGCCAGGCAGGCAUCAAAAGAAAUAGUCUUGCGCUCAACCUGAAAGUCUGUAAUCAUUUUAAGGGUA [U2A A4G A30U A114U] | 0.39
10 | UUUAACGGUCAUAGGCCACGGGAACUAGGAGCACCAUUUCGCUGCCAGUGAAGAAAUGAACGAAGAAAAUCUGGGCCAGGCAGGCAUCAAGAGAAAUAGUCUCGCGCUCAACCAGAAAGUCUGUAAUCAUUUUAAGGGUA [G1U U19C A22G A62G A91G U103C] | 0.27
11 | GAUUACGGUCAUAGGCCAUGGAAACUAGGAGCACCAUUUCGCUGCCAGUGAAGAAAUGAACAAAGAAAAUCUGGGCCAGGCAGGCAUCGAAGGAAAUAGUCUUGCGCUCAACCAGAAAGUCUGUAAUCAUUUUAAGGGUA [U2A A4U A89G A92G] | 0.56
12 | GAUAACGGUCAUGGGCCAUGGAAACUAGGAGCACCAUUUCGCUGCCAGUGAAGAAAUGAACAAAGAAAAUCUGGGCCAGGCAGGCAUCAAAAGAAGUAGUCUUGCGCUCAACCAGAAAGUCUGUAAUCAUUUUAAGGGUA [U2A A13G A96G] | 1.4
13 | UUUAACGGUCAUAGGCCAUGGAAACUAGGAGCACCAUUUCGCUGCCAGUGAAGAAAUGGGCAAAGAAAAUCUGGGCCAGGCAGGCAUCAAAAGAAAUAGUCUUGCGCUCAACCAGAAAGUCUGUAAUCAUUUUAAGGGUA [G1U A59G A60G] | 0.95
14 | AUUAACGGCCAUAGGCCAUGGAAACUAGGAGCACCAUUUCGCUGCCAGUGAAGAAAUGAACAAAGAAAAUCUGGGCCAGGCAGGCAUCAAAAGAAAUAGUCUUGCGCUCAGCCAGAAAGUCUGUAAUCAUUUUAAGGGCA [G1A U9C A111G U139C] | 0.07
15 | UUUAACGGUCAUAGGCCAUGGAAACUAGGAGCACCAUUUCGCUGCCAGUGAAGAAGUGAACAAAGAAAAUCUGGGCCAGGCAGGCAUCAAAAGAAAUAGUCUUGCGCCCAACCGGAAAGUCUGUAAUCAUUUUAAGGGUA [G1U A56G U108C A114G] | 0.05
16 | GAUAACGGUCAUAGGCCGUGGAAACUAGGGGCACCAUUUCGCUGCCAGUGAUGAAAUGAGCAAAGAAAAUCUGGGCCAGGCAGGCAUCAAAAGAAAUAGUCUUGCGCUCAACCUGGAAGUCUGUAAUCAUUUUAAGGGUA [U2A A18G A30G A52U A60G A114U A116G] | 0.05
17 | GAUAACGGUCAUAGGCCAUGGGAACUAGGAGCACCAUUUCGCUGCCAGUGAAGAAAUGAACAAGGAAAAUCUGGGCCAGGCAGGCAUCAAAAGAAAUAGUCUUGCGCUCAACCAGAAAGUCUGUAAUCAUUUUAAGGGUA [U2A A22G A64G] | 0.21
18 | GAUAACGGUCGUAGGCCAUGGAAACUAGGAGCACCAUUUCGCUGCCAGUGAAGAAGUGAACAAAGAAAAUCUGGGCCAGGCAGGCAUCAAAAGAAGUAGUCUUGCGCUCAACCAGAAAGUCUGUAACCAUUUUAAGGGUA [U2A A11G A56G A96G U127C] | 0.89
19 | UUUAACGGUCAUAGGCCACGGAAACUAGGAGCACCAUUUCGCUGCCGGUGAAGAAAUGAACAGAGAAAAUCAGGGCCAGGCAGGCACCAAAAGAAAUAGUCUCGCGCUCGACCAGAAAGUCUGUAAUCAUUUUAAGGGUA [G1U U19C A47G A63G U72A U87C U103C A110G] | 0.03
20 | GAUAACGGUCAUAGGCCGUGGAAACUAGGAGCACCAUUUCGCUGCCAGUGAAGAAAUGAACAAAGAAAAUCUGGGCCAGGCAGGCAUCAAAAGAAAUAGUCAUGCGCUCAACCAGAAAGUCUGUAAUCAUUUUAAGGGUA [U2A A18G U102A] | 0.51
21 | AUUAACGGUCAUAGGCCAUGGAAACUAGGAGCACCAUUUCGCUGCCAGUGAAGAAAUUAACAAAGAAUGUCUGGGCCAGGCAGGCAUCAAAAGAAAUAGUCUCGCGCUCAACCAGAAAGUCUGUAAUCACUUUAAGGUUA [G1A G58U A68U A69G U103C U130C G138U] | 0.38

From the RNAGym collection of RNA variant scans (doi:10.7554/elife.90254)
